# In patent US20260297081A1, “COMPOUNDS AND METHODS OF TREATING CANCERS” (Cullgen Inc., priority 2023, published 2026):
# At least one read-out could not be matched to a standard name with certainty.
# System: cyclin D1
# Assay: HiBiT detection of HiBiT-tagged cyclin D1 protein level in MCF7 cells, 16 hours (Table 8)
# Type: cell-based
# Conditions: 10 nM, MCF7 cells stably expressing HiBiT tagged target proteins
row,SMILES,% Cyclin D1 Relative Level (10 nM)
1,"CC(=O)c1c(C)c2cnc(Nc3ccc(N4CCN(C5CCN(C(=O)[C@H]6CC[C@H](Nc7nc(NC(C)C)ccc7C(=O)Nc7cn(C)c(C8CC8)n7)CC6)C5)CC4)cn3)nc2n(C2CCCC2)c1=O (stereo partly drawn) [CPD-481, 2-((4-(3-(4-(6-((6-acetyl-8-cyclopentyl-5-methyl-7-oxo-7,8-dihydropyrido[2,3-d]pyrimidin-2-yl)amino)pyridin-3-yl)piperazin-1-yl)pyrrolidine-1-carbonyl)cyclohexyl)amino)-N-(2-cyclopropyl-1-methyl-1H-imidazol-4-yl)-6-(isopropylamino)nicotinamide]",B (55%< Relative protein level ≤85%)
2,"[2H]C([2H])([2H])Nc1ccc(C(=O)Nc2ccc(N(C)C)nn2)c(NC2CCN(C(=O)N3CCC(N4CCN(c5ccc(Nc6ncc7c(C)c(C(C)=O)c(=O)n(C8CCCC8)c7n6)nc5)CC4)C3)CC2)n1 (stereo not drawn) [CPD-482, 2-((1-(3-(4-(6-((6-acetyl-8-cyclopentyl-5-methyl-7-oxo-7,8-dihydropyrido[2,3-d]pyrimidin-2-yl)amino)pyridin-3-yl)piperazin-1-yl)pyrrolidine-1-carbonyl)piperidin-4-yl)amino)-N-(6-(dimethylamino)pyridazin-3-yl)-6-((methyl-d3)amino)nicotinamide]",B (55%< Relative protein level ≤85%)
3,"CC(=O)c1c(C)c2cnc(Nc3ccc(N4CCN(C5CCN(C(=O)NC6CCC(Nc7nc(NC(C)C)ccc7C(=O)Nc7ccc(N(C)C)nn7)CC6)C5)CC4)cn3)nc2n(C2CCCC2)c1=O (stereo not drawn) [CPD-483, 2-((4-(3-(4-(6-((6-acetyl-8-cyclopentyl-5-methyl-7-oxo-7,8-dihydropyrido[2,3-d]pyrimidin-2-yl)amino)pyridin-3-yl)piperazin-1-yl)pyrrolidine-1-carboxamido)cyclohexyl)amino)-N-(6-(dimethylamino)pyridazin-3-yl)-6-(isopropylamino)nicotinamide]",C (Relative protein level >85%)
4,"CC(=O)c1c(C)c2cnc(Nc3ccc(N4CC5(CC(N(C)CC(=O)N6CCC(Nc7nc(NC(C)C)ccc7C(=O)Nc7ccc(N(C)C)nn7)CC6)C5)C4)cn3)nc2n(C2CCCC2)c1=O [CPD-484, 2-((1-(N-(2-(6-((6-acetyl-8-cyclopentyl-5-methyl-7-oxo-7,8-dihydropyrido[2,3-d]pyrimidin-2-yl)amino)pyridin-3-yl)-2-azaspiro[3.3]heptan-6-yl)-N-methylglycyl)piperidin-4-yl)amino)-N-(6-(dimethylamino)pyridazin-3-yl)-6-(isopropylamino)nicotinamide]",C (Relative protein level >85%)
5,"CC(=O)c1c(C)c2cnc(Nc3ccc(N4CCC5(CCN(CC(=O)NCC67CC(Nc8nc(NC(C)C)ccc8C(=O)Nc8ccc(N(C)C)nn8)(C6)C7)C5)C4)cn3)nc2n(C2CCCC2)c1=O (stereo not drawn) [CPD-485, 2-((3-((2-(7-(6-((6-acetyl-8-cyclopentyl-5-methyl-7-oxo-7,8-dihydropyrido[2,3-d]pyrimidin-2-yl)amino)pyridin-3-yl)-2,7-diazaspiro[4.4]nonan-2-yl)acetamido)methyl)bicyclo[1.1.1]pentan-1-yl)amino)-N-(6-(dimethylamino)pyridazin-3-yl)-6-(isopropylamino)nicotinamide]",B (55%< Relative protein level ≤85%)
6,"CC(=O)c1c(C)c2cnc(Nc3ccc(CN4CCC(NC(=O)C5CC6(CC(Nc7nc(NC(C)C)ccc7C(=O)Nc7ccc(N(C)C)nn7)C6)C5)CC4)cn3)nc2n(C2CCCC2)c1=O (stereo not drawn) [CPD-486, 2-((6-((1-((6-((6-acetyl-8-cyclopentyl-5-methyl-7-oxo-7,8-dihydropyrido[2,3-d]pyrimidin-2-yl)amino)pyridin-3-yl)methyl)piperidin-4-yl)carbamoyl)spiro[3.3]heptan-2-yl)amino)-N-(6-(dimethylamino)pyridazin-3-yl)-6-(isopropylamino)nicotinamide]",B (55%< Relative protein level ≤85%)
